Results as given in PubChem BioAssay AID686978 (National Center for Advancing Translational Sciences (NCATS), 2013).
Among all 420,000 compounds or so, about 64,000 (15%) were called active. Inconclusive means that the source gave no clear call. Such entries were picked first, then a sample of the others. The call rests on the fitted dose curve; in most records, active means well fitted inhibition curve with a large enough effect; inconclusive means small, poorly fitted or top-dose-only effect; inactive means flat fitted curve, though single readings scatter. No potency is given beside an inconclusive call; the fits are too rough.

Experiment: qHTS for Inhibitors of human tyrosyl-DNA phosphodiesterase 1 (TDP1): qHTS in cells in absence of CPT; further: nearly all actives have a fitted effect of over 55% in size
Conditions: DT40 Tdp1-/- hTDP1 cells, no CPT, ATP luminescence, 48 h; activity change, negative = growth inhibition: at 46.2 µM (top of the series) unless noted
Outline: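 Seeded 400 DT40-hTDP1 cells/well (vehicle DMSO, no 20 nM CPT); pinned compounds; ≥48 hr at 37 °C; CellTiter-Glo luminescence as viability measure.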
On the % scale 0 is the no-effect control and ±100 the full control effect; potency means the concentration at half of the fitted maximal effect; tags describe the fitted curve by direction and shape.

SMILES	activity change, negative = growth inhibition	Potency
CN(C)CCNC(=O)C(c1ccccc1)c1ccccc1	inactive: -23.4%	
COc1ccc(NC(=O)CSCC(=O)N(C)CC(=O)Nc2cccc3ccccc23)cc1		inconclusive [inhibitor, single point]
O=C(COC(=O)c1ccccc1Cl)NC1CCCCCC1	inactive: -5.81%	
O=c1cc(-c2cccc(F)c2)oc2ccccc12		inconclusive [inhibitor, single point]
CCN(CC)CCCN(Cc1cc2cc3c(cc2[nH]c1=O)OCCO3)C(=O)Nc1ccccc1		inconclusive [inhibitor, single point]
C=CCNC(=O)c1ccc(N(Cc2ccccc2)S(C)(=O)=O)cc1	inactive: -22.2%	
COC(=O)C1=C(C(C)=O)C(c2ccc(C(=O)OC)cc2)n2nnnc2N1 (stereo not given)		inconclusive [inhibitor, partial curve, poor fit]
COC(=O)C[C@@H]1C=C[C@@H](NC(=O)Nc2cccc(F)c2)[C@@H](CO)O1		inconclusive [inhibitor, partial curve, poor fit]
CC(=O)c1ccc(NC(=O)NCCc2c[nH]c3ccccc23)cc1		inconclusive [inhibitor, single point]
Oc1ccc(CCNCCCCCCNCCc2ccccc2)cc1O		inconclusive [inhibitor, single point]
COc1ccc(-c2c[n+]3c(n2-c2ccccc2)SCC3)cc1OC		inconclusive [inhibitor, partial curve]
O=C1CSc2ccc(S(=O)(=O)NCc3ccccc3)cc2N1		inconclusive [inhibitor, single point]
Cc1cc(NS(=O)(=O)c2ccc(NC(=O)CCCOc3ccc(Cl)cc3)cc2)no1	inactive: -1.07%	
CC(C)C[C@H]1CN(CCCC[C@H]2CNC(=O)C(=O)N2CC2CCCCC2)C(=O)C(=O)N1CCc1ccccc1		inconclusive [inhibitor, single point]
Cc1ccc(-c2noc(CN3CCN(C(c4ccccc4)c4ccccc4)CC3)n2)cc1		inconclusive [inhibitor, partial curve]
CCc1nc2ccc(C(=O)NCc3ccccc3OC)cn2c1N(C)Cc1ccc(OC)cc1		active: 20.6 µM
Cc1cccc2cc(C3CC(c4ccco4)=NN3C(=O)CCC(=O)O)c(Cl)nc12 (stereo not given)		inconclusive [inhibitor, single point]
CC1(C)Cc2nc3[nH]c(=S)[nH]c(=O)c3cc2CO1	inactive: -8.81%	
CC(NC(=O)CN1CCc2ccccc21)c1ccccc1 (stereo not given)	inactive: -16.3%	
OC[C@H]1O[C@@H](n2cnc3c(NCc4ccccc4)ncnc32)[C@H](O)[C@@H]1O		active: 1.88 µM
COc1ccc(-n2nc3c(N4CCC(C(=O)NCC(C)c5ccccc5)CC4)nnc(C)c3c2C)cc1 (stereo not given)		inconclusive [inhibitor, single point]
Cc1cccc(NC(=O)CSc2nnc(CNC(=O)c3c(F)cccc3Cl)o2)c1C	inactive: -23.1%	

SMILES	activity change, negative = growth inhibition	Potency
O=C(O)C(Cc1ccccc1)N=C(NS(=O)(=O)c1ccccc1)c1ccccc1 (stereo not given)	inactive: -8.53%	
CCOC(=O)c1sc2nc(C)nc(NCc3ccc(Cl)cc3)c2c1C		active: 20.6 µM
N#Cc1ccc(CSc2nnc(-c3c[nH]c4ccccc34)n2-c2ccccc2)cc1		active: 23.1 µM
CCc1nc2ccc(C(=O)NCC3CCCCC3)cn2c1N(C)C(=O)c1cccc(OC)c1		inconclusive [inhibitor, single point]
CC(/C=N/n1c(COc2ccccc2)n[nH]c1=S)=C\c1ccccc1		inconclusive [inhibitor, partial curve, poor fit]
CCCCCn1c(=O)[nH]c2cc(C(=O)Nc3ccc(F)cc3)ccc2c1=O		inconclusive [inhibitor, full curve, poor fit]
O=C(NCCC(=O)N1O[C@@H]2C=C[C@H]1C2)OCC1c2ccccc2-c2ccccc21		inconclusive [inhibitor, partial curve]
COc1ccc(NC(=O)CSCC(=O)Nc2nnc(CC(C)C)s2)cc1		inconclusive [inhibitor, full curve]
O=C(NCCc1ccccc1)C1CCCN(S(=O)(=O)c2cccc3nsnc23)C1 (stereo not given)		active: 13 µM
C#CCOCCOCCOCCNc1nc(N2CCN(C(=O)[C@H]([C@@H](C)O)n3cc(CCCCN)nn3)CC2)nc(N2CCN(C(=O)[C@H](CCCCN)n3cc(CC(C)O)nn3)CC2)n1 (stereo not given in full)	inactive: -6.22%	
CCOC(=O)C1CCN(S(=O)(=O)c2cc(-c3cc(C)no3)ccc2C)CC1		inconclusive [inhibitor, single point]
COc1ccc(N2CCN(C(=O)C(=O)c3cc(OC)c4ccccc4c3)CC2)cc1		active: 20.6 µM
CN1CCN(C(=O)C23CC4CC(C2)CC(c2ccccc2)(C4)C3)CC1		inconclusive [inhibitor, partial curve, poor fit]
CC1CCN(CCNC(=O)c2ccc(Cn3c(SCc4ccccc4)nc4cccnc43)cc2)CC1		inconclusive [inhibitor, single point]
COc1ccc(Cl)cc1N1CC(C(=O)Nc2nccs2)CC1=O (stereo not given)		inconclusive [inhibitor, single point]
CC(/C=C1\N=C(SCc2ccccc2Cl)SC1=O)=C\c1ccccc1		inconclusive [inhibitor, single point]
COc1ccc(NC(=S)Nc2cccc(S(=O)(=O)N3CCCCC3)c2)cc1		inconclusive [inhibitor, single point]
CC(C)(C)C(=O)CCN1C(=O)C2(OCCO2)c2ccccc21	inactive: -3.5%	
CC(=O)/C(=N\Nc1ccc(Cl)cc1Cl)Sc1cccc2cccnc12		active: 4.11 µM
COCC1CCN(C(=O)CCc2nnc(C3(c4ccc(Cl)cc4)CCC3)o2)CC1		inconclusive [inhibitor, single point]
CCOC(=O)Cn1c(=O)oc2cc(S(=O)(=O)Nc3c(C)cc(C)cc3C)ccc21		inconclusive [inhibitor, partial curve]
CCCc1cc(=O)oc2cc(OCC(=O)NCCCN3CCOCC3)c(Cl)cc12		inconclusive [inhibitor, partial curve, poor fit]

SMILES	activity change, negative = growth inhibition	Potency
Cc1ccccc1NC(=O)C(c1ccccc1)C1CCCC1 (stereo not given)		inconclusive [inhibitor, single point]
CCc1cccc(CC)c1NC(=S)Nc1ccccc1		inconclusive [inhibitor, partial curve, poor fit]
O=C(NC1CC(=O)N(c2ccc(Cl)cc2)C1)c1ccc(S(=O)(=O)N2CCCC2)cc1 (stereo not given)		inconclusive [inhibitor, single point]
COc1ccc(-n2c(SCc3ccccc3F)nc3c([nH]c4ccccc43)c2=O)cc1		inconclusive [inhibitor, single point]
COc1cc(NC(=S)N2CCC(C(N)=O)CC2)cc(OC)c1	inactive: 6.1%	
COc1ccc(C2Nc3ccccc3C(=O)N2C2CCCCC2)cc1 (stereo not given)		inconclusive [inhibitor, single point]
CC(=O)N1CCc2cc(S(=O)(=O)CCC(=O)NCCc3ccc(Cl)cc3)ccc21		inconclusive [inhibitor, single point]
CSc1cccc(NC(=O)C2CCN(S(=O)(=O)c3ccc4c(c3)NC(=O)CO4)CC2)c1		inconclusive [inhibitor, single point]
COc1ccccc1OCCCN1C(=O)C(=O)c2cccc(C)c21		active: 1.46 µM
CCOc1cc(/C=N/NC(=O)Cc2ccc(C(F)(F)F)cc2[N+](=O)[O-])c(Br)cc1OC		inconclusive [inhibitor, partial curve]
COC(=O)c1nn(-c2ccccc2)c2nnc(Cc3ccc(C)cc3)c(=O)n12	inactive: -6.7%	
O=C(NCC(O)c1ccc([N+](=O)[O-])cc1)c1cccc(S(=O)(=O)N2CCOCC2)c1 (stereo not given)	inconclusive: 0.717% [inhibitor]	
Cc1cccc(NC(=O)N2CCC(C(=O)c3ccc(F)cc3)CC2)c1		inconclusive [inhibitor, single point]
COc1ccc(-n2c(COc3ccccc3)nnc2SCc2ccc(C#N)cc2)cc1		inconclusive [inhibitor, single point]
COc1cc(/C=C2\C(=N)N3N=CSC3=NC2=O)ccc1OS(=O)(=O)c1ccccc1[N+](=O)[O-]		inconclusive [inhibitor, single point]
Nc1c(C(=O)Nc2ccc(Br)cc2)sc2nc(-c3ccco3)ccc12		active: 14.6 µM
O=C(CCC1CCCC1)Nc1cc(Cl)ccc1N1CCOCC1		inconclusive [inhibitor, single point]
O=C(Cn1c(=O)nc(-c2ccccc2)c2ccccc21)NCCCc1ccccc1		inconclusive [inhibitor, single point]
COc1ccc(CCNC(=O)CS(=O)Cc2nc(-c3ccc(C)cc3)oc2C)c(OC)c1 (stereo not given)		inconclusive [inhibitor, single point]
COc1ccc(CCNC(=O)C(=O)NCC(c2ccco2)S(=O)(=O)c2ccccc2)cc1OC (stereo not given)		inconclusive [inhibitor, single point]
COc1ccc(CCNC(=O)c2cc(-c3ccccn3)nc3c(Cl)cccc23)cc1OC	inconclusive: -32.3% [inhibitor]	
